According to PMC12820563:
This is one part of the list. The list includes weakly bound sequences.

Biological target: T1, MBP-FoxP3dN (UniProt Q99JB6)
T1 sequence: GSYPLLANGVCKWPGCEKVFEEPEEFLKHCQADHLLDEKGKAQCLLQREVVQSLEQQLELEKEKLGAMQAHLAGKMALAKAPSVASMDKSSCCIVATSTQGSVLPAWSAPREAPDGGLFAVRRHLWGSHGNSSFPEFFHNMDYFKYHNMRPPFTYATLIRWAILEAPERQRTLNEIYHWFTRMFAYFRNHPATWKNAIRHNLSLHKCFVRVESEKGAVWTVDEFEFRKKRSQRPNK
Test: PD-seq (MBP pull-down with sequencing)
Conditions: 20 mM Tris-HCl pH 7.5, 100 mM NaCl, 1.5 mM MgCl2, 0.4 uM protein, 0.1 uM dsDNA library, 30 min, room temperature, amylose pull-down; high values mean tight binding; double strand, one strand shown

| Sequence | binding signal (RPM ratio (pull-down/input)) |
| --- | --- |
| GATGATTGTTCTCCCAGCTGATGAATTTGGACTATCGAGTAAACAAATTTTCCTAATCTTTCTGTTCAAGCGCCATCTAC | 0.629 |
| GATGATTGTTCTCCCAGCTGATGAATTCCGCGATTCGAGTAAACAAATTTTCCTAATCTTTCTGTTCAAGCGCCATCTAC | 1.22 |
| GATGATTGTTCTCCCAGCTGATGAATTCACACCTTCGAGTAAACAAATTTTCCTAATCTTTCTGTTCAAGCGCCATCTAC | 0.352 |
| GATGATTGTTCTCCCAGCTGATGAATTCACTGGCTCGAGTAAACAAATTTTCCTAATCTTTCTGTTCAAGCGCCATCTAC | 0.23 |
| GATGATTGTTCTCCCAGCTGATGAATTTATAACGTCGAGTAAACAAATTTTCCTAATCTTTCTGTTCAAGCGCCATCTAC | 0.547 |
| GATGATTGTTCTCCCAGCTGATGAATTCAGGGCCTCGAGTAAACAAATTTTCCTAATCTTTCTGTTCAAGCGCCATCTAC | 0.404 |
| GATGATTGTTCTCCCAGCTGATGAATTTGCATGGTCGAGTAAACAAATTTTCCTAATCTTTCTGTTCAAGCGCCATCTAC | 2.9 |
| GATGATTGTTCTCCCAGCTGATGAATTCCGTGGCTCGAGTAAACAAATTTTCCTAATCTTTCTGTTCAAGCGCCATCTAC | 0.541 |
| GATGATTGTTCTCCCAGCTGATGAATTACCTATATCGAGTAAACAAATTTTCCTAATCTTTCTGTTCAAGCGCCATCTAC | 0.414 |
| GATGATTGTTCTCCCAGCTGATGAATTTAACCACTCGAGTAAACAAATTTTCCTAATCTTTCTGTTCAAGCGCCATCTAC | 0.412 |
| GATGATTGTTCTCCCAGCTGATGAATTCACCTCATCGAGTAAACAAATTTTCCTAATCTTTCTGTTCAAGCGCCATCTAC | 0.374 |
| GATGATTGTTCTCCCAGCTGATGAATTCTTAATGTCGAGTAAACAAATTTTCCTAATCTTTCTGTTCAAGCGCCATCTAC | 0.369 |
| GATGATTGTTCTCCCAGCTGATGAATTTTCGGCATCGAGTAAACAAATTTTCCTAATCTTTCTGTTCAAGCGCCATCTAC | 0.816 |
| GATGATTGTTCTCCCAGCTGATGAATTGCGATAGTCGAGTAAACAAATTTTCCTAATCTTTCTGTTCAAGCGCCATCTAC | 1.09 |
| GATGATTGTTCTCCCAGCTGATGAATTGCTCGACTCGAGTAAACAAATTTTCCTAATCTTTCTGTTCAAGCGCCATCTAC | 0.415 |
| GATGATTGTTCTCCCAGCTGATGAATTCTTTCGTTCGAGTAAACAAATTTTCCTAATCTTTCTGTTCAAGCGCCATCTAC | 0.225 |
| GATGATTGTTCTCCCAGCTGATGAATTCGTGACCTCGAGTAAACAAATTTTCCTAATCTTTCTGTTCAAGCGCCATCTAC | 0.418 |
| GATGATTGTTCTCCCAGCTGATGAATTACGGGCCTCGAGTAAACAAATTTTCCTAATCTTTCTGTTCAAGCGCCATCTAC | 0.504 |
| GATGATTGTTCTCCCAGCTGATGAATTCCTTTTGTCGAGTAAACAAATTTTCCTAATCTTTCTGTTCAAGCGCCATCTAC | 0.531 |
| GATGATTGTTCTCCCAGCTGATGAATTTTCTTGATCGAGTAAACAAATTTTCCTAATCTTTCTGTTCAAGCGCCATCTAC | 0.304 |

| Sequence | binding signal (RPM ratio (pull-down/input)) |
| --- | --- |
| GATGATTGTTCTCCCAGCTGATGAATTAATACTCTCGAGTAAACAAATTTTCCTAATCTTTCTGTTCAAGCGCCATCTAC | 0.53 |
| GATGATTGTTCTCCCAGCTGATGAATTAGAAGGGTCGAGTAAACAAATTTTCCTAATCTTTCTGTTCAAGCGCCATCTAC | 0.267 |
| GATGATTGTTCTCCCAGCTGATGAATTTATGGTCTCGAGTAAACAAATTTTCCTAATCTTTCTGTTCAAGCGCCATCTAC | 2.6 |
| GATGATTGTTCTCCCAGCTGATGAATTGGTGACGTCGAGTAAACAAATTTTCCTAATCTTTCTGTTCAAGCGCCATCTAC | 0.486 |
| GATGATTGTTCTCCCAGCTGATGAATTATTCTCTTCGAGTAAACAAATTTTCCTAATCTTTCTGTTCAAGCGCCATCTAC | 0.292 |
| GATGATTGTTCTCCCAGCTGATGAATTTCTCTAATCGAGTAAACAAATTTTCCTAATCTTTCTGTTCAAGCGCCATCTAC | 0.297 |
| GATGATTGTTCTCCCAGCTGATGAATTAGGGTCCTCGAGTAAACAAATTTTCCTAATCTTTCTGTTCAAGCGCCATCTAC | 0.54 |
| GATGATTGTTCTCCCAGCTGATGAATTATCTAATTCGAGTAAACAAATTTTCCTAATCTTTCTGTTCAAGCGCCATCTAC | 0.315 |
| GATGATTGTTCTCCCAGCTGATGAATTTTGAATATCGAGTAAACAAATTTTCCTAATCTTTCTGTTCAAGCGCCATCTAC | 0.82 |
| GATGATTGTTCTCCCAGCTGATGAATTGATGTCATCGAGTAAACAAATTTTCCTAATCTTTCTGTTCAAGCGCCATCTAC | 1.17 |
| GATGATTGTTCTCCCAGCTGATGAATTTGGCCCCTCGAGTAAACAAATTTTCCTAATCTTTCTGTTCAAGCGCCATCTAC | 1.41 |
| GATGATTGTTCTCCCAGCTGATGAATTACTAGGGTCGAGTAAACAAATTTTCCTAATCTTTCTGTTCAAGCGCCATCTAC | 0.234 |
| GATGATTGTTCTCCCAGCTGATGAATTAGCCGGATCGAGTAAACAAATTTTCCTAATCTTTCTGTTCAAGCGCCATCTAC | 0.197 |
| GATGATTGTTCTCCCAGCTGATGAATTACGGCAATCGAGTAAACAAATTTTCCTAATCTTTCTGTTCAAGCGCCATCTAC | 1.93 |
| GATGATTGTTCTCCCAGCTGATGAATTTCACTAGTCGAGTAAACAAATTTTCCTAATCTTTCTGTTCAAGCGCCATCTAC | 0.269 |
| GATGATTGTTCTCCCAGCTGATGAATTACGAAGCTCGAGTAAACAAATTTTCCTAATCTTTCTGTTCAAGCGCCATCTAC | 0.301 |
| GATGATTGTTCTCCCAGCTGATGAATTAGTATACTCGAGTAAACAAATTTTCCTAATCTTTCTGTTCAAGCGCCATCTAC | 4.99 |
| GATGATTGTTCTCCCAGCTGATGAATTAGACGCGTCGAGTAAACAAATTTTCCTAATCTTTCTGTTCAAGCGCCATCTAC | 0.709 |
| GATGATTGTTCTCCCAGCTGATGAATTACGTTCGTCGAGTAAACAAATTTTCCTAATCTTTCTGTTCAAGCGCCATCTAC | 0.554 |
| GATGATTGTTCTCCCAGCTGATGAATTACCCTTCTCGAGTAAACAAATTTTCCTAATCTTTCTGTTCAAGCGCCATCTAC | 0.356 |
